Assay results from the supplement of paper PMC12632987.
Over roughly 2,300 sequences, “median log2 fold change of GCK-ALFA target abundance (FLAG IP / Myc IP barcode read proportion)” has its median near 0.095; the lowest 2% begin near -0.47. The list shows a part of the results.

B1: LC3A_147_432 (protein)
chain: YITEVDIDVLTKDAEEEVLEAAREIVEELRAKGYKVELEVEVEELENGEKFIDIRIIVEAETEEEAKEAADYIVDRFDELYEKNKDKILGYIISVEIKEK
B2: LC3A_102_143 (protein)
chain: DLEEKKKKLKEEALKKVKEALEKDKSVTEEEKKKLLELAEKAIEATIENTVSEAQHGFSDIVAEDKRLEALEEIEKLNPKIAKLVKELIKKVEEELKKFM
B3: LC3A_28_1301 (protein)
chain: SALAEALEKVIAEAKKAAAAGEAKVFTIKVPGDANQEDIDKVIEAMKEIAEILKDVKGSAIIIDVDANLKQEHLDKLAKAAEEIEKKYPNVTVIIALEEP
B4: LC3A_132_324 (protein)
chain: SEEKVKKLREELNKLIEEAEKNIDDEKKVEELIKKIKELLEKASKEISPEEAAELFNEVADKLDEVAEKADEAGKENVALTLDGLRVEAEALAIREEEKI
B5: LC3A_147_469 (protein)
chain: YKTTVSIDILTKDAEEEVIKELKKIAEELKAEGYKVELEIKTEKLEDGTTFIEATITIEAETLEEAEEAANKVISLIDEMEEKLKDKILGSLISVEIEEV
B6: LC3A_free_39_2199 (protein)
chain: SEEEEEEAEEEILELAEEEGEEALEAAEELLEELEGNLELVEAVLEQVKRAKEEGADVLELLKRLLELVRKLQEEGKSEEEIIEAIEEEADVIINLIPID
B7: LC3A_28_901 (protein)
chain: GAALESARKALEEVKKAVAEGNTEPLVVEVVAPSKEEDVEEFNELLEELAEEASKMKGVTIIIDVDESVSQENIDKIIDKAEEIEEKYPNVTVIIALPED
B8: LC3A_free_39_2221 (protein)
chain: MEEELEAVLREIAEESGLDYEEVRARMEELQRVGGLSMEQMLEIARALLEAVRAGADAREILEEMLAIAREMTAAGKSPEEIAAAILQTIEDARNLVPLE
B9: LC3A_28_1277 (protein)
chain: SEIDKSLAAALAAAKEAKAKGESAVITIKVPGTATEEDIAKVIATLEEIAEILKDVPNQSIVIDVDGKVPQEYIDKIADKAEEIEKKYPNITVIIALGEE
B10: LC3A_3_1799 (protein)
chain: MEELIEELLKKLKEAGKSEETIEAVRRAAELLKERGFEEALKTFIEEMEKLIDAPDELILEFAEEVLEKLETEDLSEEELIEFIKELARLAKNESEIEEL
B11: LC3A_free_8_2492 (protein)
chain: KSEELAKAASDALDKLEEELVKEAKKLGVSELDILDISLEIGSTIAEIYTKRNDSPEEILKTLKEGLEEVIKLAEEIDEELAKKTKELSEKVIKEVEELI
B12: LC3A_free_8_2468 (protein)
chain: KSQEVVDTVTSGLDELEKEVEKKAKELGLSRLDILDLSLLIGSVIADVISNSDKSVEEIKKTFEEGMEEVIKRAKELSEELAELVKKGKEKALEKLKKLE
B13: LC3A_3_1815 (protein)
chain: MEKEIEEAIKLLKEAGASEETIEAFKKAVEALLEKGYEETAKTLIELAKELKDLPDELLLEFFKEVLELVETSDDNEEEIKEKVKEIASTVRNESEIIEL
B14: LC3A_free_8_2470 (protein)
chain: SSQKAVDAAVEGLDELEKEVTEKAKELGLSRLDILELELEIGSVIAEIISLVDKSIEEIIKAFEEDMEDVIKLAKEISPEVAEIVEKAKEKILKKLKELE
B15: LC3A_28_942 (protein)
chain: MTTQEDLEAVLAQAEEAAKKGEATTFTLTVTPEDTQEDVERVLDTVERIAELLKDIKGTGIVVDVEAGVPQEHIDYLAERLEEIEKKYPNVTVIIALDED
B16: LC3A_3_1540 (protein)
chain: MDAAVAAALARLRAAGASAATLAAFEAAVAALRERGYDAALETLIAETDRLLGLSDALLLAFFEEVLELVETEDIDEEELIARIREIARTTLSEAEIEEL
B17: LC3A_28_976 (protein)
chain: SEIDKAIEKALAEAKAAAAAGEPAVITITVPGSATEEEVEKVIEALEEIAKILAGVKGSAIIIDLTGGVKQEHRDKLADAAEEIEEKYPNVTVILALDEE
B18: LC3A_3_1354 (protein)
chain: SEELIEEQIERLREAGFSEEVLEAARAAFEGLAAQGHEEGIELLTEALLKHKDAPEEKKLRVLNNLLAEVQANPNLTQEEVEELVKLADLDLAIEELDEE
B19: LC3A_59_2012 (protein)
chain: REEVREWVEKIYEAYDDVEKFYELVKKAYEELKKKYSDEELLKLVKEEVERLIKEGKDPRKMKAIYESFKAVIEIKDEEKQKEEIRLIILESEIEEIDEE
B20: LC3A_free_8_2543 (protein)
chain: KSQEAVEKVTKLLDEAEEEITKKAKELGKDRLDILDLELLIGELKIEVIELVDESIEKIKEEVKEGMKEIIKKAKEISEELAKIAEKAEKEILEKLEELE
B21: LC3A_3_1536 (protein)
chain: LDEEIAATLAELKAAGKSEETLEAVREAAELLKEKGYDEALKTFLEETRKLIDLPDELVLDFAEEVLNLVKTEDISEEELIKRIKEIARTIRNEAEIIEL
B22: LC3A_127_166 (protein)
chain: EKKKLLEELLKLTEELIKLLDDPNASLEEILEKAKKLLEVAKELLKKDPSAKPILEDAEQLLKTVEQLKKAPPEQQPELREHASMIAEGILIEAESLLLK
B23: LC3A_3_1834 (protein)
chain: LEEEVAALLEELRAAGHSEEALAAVRELFEALREKGYEEALRTAIELLRELKDLPSELTLELAREALRLVEEEDLSEEELTERIKELARLYRNEGEIEEL
B24: LC3A_3_1592 (protein)
chain: MEELVKEALERLKEAGLSEEVLKAAKELLEALAKKGYENAIKTTTELLLEAKDLPAEVLVDTLKEILHIVETKDLNEEEIIKEIEREFRVARLESEIIEL
B25: LC3A_3_1461 (protein)
chain: AEELIKEAKAILKAQGATPETIKAAEALLKALAAKGYEEAMKTVVELLKEMKGVPSEILLATFEELLAYVETEDATEEEVIAKIKEEFAAAKSEAEIIEL
B26: LC3A_3_1664 (protein)
chain: MDELIAATLAWLAAQGRSQETLDAVREAMTALKEKGYDKSLETFAELLRELAHLSDELLLELAKEVLELVKTSDLNEEEMTKEIKEIARTIRNEAEIEEL
B27: LC3A_3_1486 (protein)
chain: MEELLAEAREVLEARGASPEQIEAVLADVRAILELGYEETVRTFIELLKELPDLSPEKIVAAAGTIRDRVEEEDLTEEEAVEYAKRVMNDVAEIEELDEE
B28: LC3A_37_1344 (protein)
chain: MEKWVIVVVANSEEAYEEAKKEAEKEAEAIGAELITKLLPEDATEAELIDAAEELAEKRKEEIRKKTGKEVKSSSIIEVDRDEETGDIVVTKYVLLEILE
B29: LC3A_17_534 (protein)
chain: REELERELRETLEELERLVEKLEEYDPEAAEEFRRRLEEARRLLEEGRLREAAELLERTAEELADRIDSLEWPDEIEKSVLEMEANGVALRAIGLLLRLE

Each binder was assayed against MAP1LC3A, Q9H492 (assay: median log2 fold change of GCK-ALFA target abundance (FLAG IP / Myc IP barcode read proportion) (log2 ratio); each designed protein is fused to an ALFA-tag nanobody in HEK293 cells to bring the named protein to FLAG-tagged glucokinase (GCK); Myc marks an untargeted standard; higher = target protein stabilised (more abundant)). Settings: target protein: 3xFLAG-MCP-GCK-ALFA reporter; HEK293 landing pad (RPLP).
Outline: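 An ALFA-nanobody-fused binder library was recombined into HEK293 landing-pad cells and induced with 2 μg mL^−1 doxycycline. Cells were transfected with a plasmid expressing a FLAG-tagged target and a Myc-tagged standard. After 48 h, lysates underwent anti-FLAG and anti-Myc immunoprecipitation, and circular RNA barcodes were reverse transcribed, amplified and sequenced. Target abundance is the per-binder median log2 ratio of FLAG to Myc barcode read proportions. Barcodes needed ≥10^−7 proportion in both replicates, binders ≥3 barcodes per replicate, and a 10^−6 pseudocount was added; the two replicates were pooled.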

| Binder | median log2 fold change |
| --- | --- |
| B1 | -0.315 |
| B2 | 0.478 |
| B3 | 0.169 |
| B4 | 0.284 |
| B5 | -0.0374 |
| B6 | 0.103 |
| B7 | -0.191 |
| B8 | 0.15 |
| B9 | 0.265 |
| B10 | 0.435 |
| B11 | 0.29 |
| B12 | -0.0949 |
| B13 | 0.127 |
| B14 | -0.0391 |
| B15 | 0.118 |
| B16 | 0.222 |
| B17 | 0.227 |
| B18 | 0.184 |
| B19 | 0.156 |
| B20 | 0.25 |
| B21 | 0.295 |
| B22 | 0.2 |
| B23 | 0.236 |
| B24 | 0.2 |
| B25 | 0.292 |
| B26 | 0.303 |
| B27 | 0.164 |
| B28 | -0.00297 |
| B29 | 0.1 |
